{"source": "PubChem BioAssay AID485344", "about": "(National Center for Advancing Translational Sciences (NCATS), 2010)", "note": "The campaign covered roughly 340,000 compounds. About 6,900 (2%) were called active. Cut-off read from the data, not from the text of the source: active = inhibition above about 30%; inactive = below that, where a call was filed. This is a selection; strong and weak results do not stand in their true shares. Where no call is shown, the source filed none."}
{"molecular_target": "D(2) dopamine receptor (Homo sapiens) (UniProt P14416)", "sequence (P14416 whole entry, looked up)": "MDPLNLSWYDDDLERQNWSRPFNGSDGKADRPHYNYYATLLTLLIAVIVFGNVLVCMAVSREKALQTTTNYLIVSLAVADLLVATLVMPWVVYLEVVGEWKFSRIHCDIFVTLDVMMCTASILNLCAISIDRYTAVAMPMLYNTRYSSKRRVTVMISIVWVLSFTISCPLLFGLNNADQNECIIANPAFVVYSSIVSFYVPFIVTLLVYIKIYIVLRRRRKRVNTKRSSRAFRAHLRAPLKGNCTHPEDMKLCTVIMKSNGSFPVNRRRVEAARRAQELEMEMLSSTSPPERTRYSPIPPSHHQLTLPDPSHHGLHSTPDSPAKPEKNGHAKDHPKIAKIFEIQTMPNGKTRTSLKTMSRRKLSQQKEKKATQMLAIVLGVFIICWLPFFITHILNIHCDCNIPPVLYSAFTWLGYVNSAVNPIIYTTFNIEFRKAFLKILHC", "experiment": "HTS Assay for Allosteric Antagonists of the Human D2 Dopamine Receptor: Primary Screen for Antagonists; note: 0% is about no effect", "conditions": "HEK293 TREx D2 cells, calcium flux, dopamine EC80; at 10 µM; stronger effect = higher value", "summary_of_the_method": "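Read-out: kinetic calcium fluorescence (1 cycle/s) in inducible HEK293 T-REx D2 cells after an EC80 dopamine addition that followed 180 s compound preincubation. Loss of the dopamine response indicates antagonism.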"}
{"smiles": "O=C(NC1CCN(Cc2ccccc2)CC1)c1ccc2c(c1)OCCCO2", "inhibition": "active: 30.3%"}
{"smiles": "C=CCc1ccc(OCC(O)CN2CCC(Cc3ccccc3)CC2)c(OC)c1", "note": "(configuration not stated)", "inhibition": "active: 41.2%"}
{"smiles": "CC(=O)c1ccc(N2CCN(C(=O)/C=C/c3ccc(S(=O)(=O)N4CCOCC4)cc3)CC2)cc1", "inhibition": "active: 49.7%"}
{"smiles": "CCc1ccc(-c2[nH]c3c(c2-c2c(-n4cccc4)n(C)c(=O)[nH]c2=O)c(=O)[nH]c(=O)n3C)cc1", "inhibition": "-5.76%"}
{"smiles": "O=C(Nc1nnc(S(=O)(=O)N2CCCCC2)s1)c1ccc(Cl)cc1", "inhibition": "-6.79%"}
{"smiles": "CC(=O)Nc1ccc(NS(=O)(=O)c2ccc3c(c2)CCCN3C(C)=O)cc1", "inhibition": "15.8%"}
{"smiles": "O=C(Nc1ccc(F)cc1)c1ccc(-n2cnnc2)cc1", "inhibition": "-9.4%"}
{"smiles": "Cc1cccc(-n2nnc(C(=O)NCc3ccccn3)c2N)c1", "inhibition": "active: 30.5%"}
{"smiles": "Cc1ccccc1OCc1nc2c3cnn(-c4ccccc4Br)c3ncn2n1", "inhibition": "3.9%"}
{"smiles": "CCn1cc2nc(SCc3cc(C)ccc3C)n(Cc3ccc(C)cc3)c(=O)c2n1", "inhibition": "-6.35%"}
{"smiles": "Cc1oc(-c2ccccc2F)nc1Cn1c(SCc2ccccc2F)nc2ccncc21", "inhibition": "0.521%"}
{"smiles": "Cc1cccc(/C=N/NC(=O)c2cc3c(s2)-c2ccccc2CC3)c1", "inhibition": "active: 31.8%"}
{"smiles": "O=C(/C=C/c1cccc([N+](=O)[O-])c1)NCC1CCCO1", "note": "(configuration not stated)", "inhibition": "active: 60.4%"}
{"smiles": "Cc1ccc(C2c3cccn3CCN2S(=O)(=O)c2ccc([N+](=O)[O-])cc2)cc1", "note": "(configuration not stated)", "inhibition": "-7.81%"}
{"smiles": "COc1ccc(Nc2oc(/C=C/c3ccc(F)cc3)nc2C#N)cc1", "inhibition": "-4.14%"}
{"smiles": "COCCCn1c(=N)c(S(=O)(=O)c2ccccc2)cc2c(=O)n3cccc(C)c3nc21", "inhibition": "6.74%"}
{"smiles": "Cc1ccc(NC2=Nc3ccccc3CC2)cc1", "inhibition": "active: 60.6%"}
{"smiles": "CN(C)CCNC(=O)Cc1ccc(NC(=O)N2CCCCc3ccccc32)cc1", "inhibition": "4.2%"}
{"smiles": "CCOC(=O)c1sc(NC(=O)c2nc(SCC)ncc2Cl)c(C(=O)OCC)c1C", "inhibition": "-5.68%"}
{"smiles": "COc1ccc2c(c1)NC1(O)c3ccccc3C(=O)C21O", "note": "(configuration not stated)", "inhibition": "active: 32.3%"}
{"smiles": "Cc1nn(Cc2ccccc2)c(C)c1NC(=O)c1cc(C(C)C)on1", "inhibition": "-14.7%"}
{"smiles": "CCOC(=O)c1cc(-c2ccc(C)cc2)n(CC(=O)Nc2cccc(C(C)=O)c2)c1C", "inhibition": "-4.81%"}
{"smiles": "COc1ccc(Cl)cc1NC(=O)c1c(C(=O)Nc2cccc(C)c2C)sc2nc(C)cc(=O)n12", "inhibition": "16.1%"}
{"smiles": "Cc1ccc2nc(N3CCN(C(=O)C4COc5ccccc5O4)CC3)sc2c1", "note": "(configuration not stated)", "inhibition": "-2.17%"}
{"smiles": "COC(=O)c1ccc(CSc2nc3c([nH]c4ccccc43)c(=O)n2-c2cccc(OC)c2)o1", "inhibition": "-17.5%"}
{"smiles": "Cc1ccnc(NS(=O)(=O)c2ccc(NC(=O)c3cc(=O)c4ccc(C)c(C)c4o3)cc2)n1", "inhibition": "-5.99%"}
{"smiles": "COc1ccc(CNC(=O)c2cc3c(=O)n(Cc4cccs4)ccc3nc2C)cc1", "inhibition": "20.1%"}
{"smiles": "N#C/C(=C\\c1ccc(-c2ccccc2[N+](=O)[O-])o1)C(=O)Nc1nc(-c2cccs2)cs1", "inhibition": "active: 32.1%"}
{"smiles": "COc1ccc(-c2nc3ccccc3o2)cc1NC(=O)c1ccc(N2CCC(C)CC2)c([N+](=O)[O-])c1", "inhibition": "5.77%"}
{"smiles": "CCCCNCCOCCOc1ccc(Cl)cc1Br", "inhibition": "active: 72.3%"}
{"smiles": "O=C(/C=C/c1ccco1)Nc1cc(Cl)ccc1C(=O)O", "inhibition": "active: 34.4%"}
{"smiles": "CN(C)c1ccc(CNc2nc(-c3ccco3)nn2S(=O)(=O)c2ccc(Cl)cc2)cc1", "inhibition": "8.78%"}
{"smiles": "Cc1cc(=O)n2c(C(=O)Nc3ccc(C)c(C)c3)c(C(=O)Nc3ccccc3)sc2n1", "inhibition": "22.5%"}
{"smiles": "CCc1cccc(C)c1NC(=O)C1CCCN(S(=O)(=O)c2cccc3nsnc23)C1", "note": "(configuration not stated)", "inhibition": "-2.94%"}
{"smiles": "CCN(C(=O)CSc1nnc(-c2ccc(Cl)cc2)o1)c1ccccc1", "inhibition": "-10.1%"}
{"smiles": "O=C(CN1C(=O)C2CCCCN2c2ccc(C(=O)N3CCCC3)cc21)NCc1ccccc1", "note": "(configuration not stated)", "inhibition": "27.9%"}
{"smiles": "COC(=O)c1ccccc1NC(=O)CSc1nc2sc3c(c2c(=O)[nH]1)CCCC3", "inhibition": "-15.7%"}
{"smiles": "c1ccc(OCCN2CCN(Cc3nc(-c4ccc5c(c4)OCO5)no3)CC2)cc1", "inhibition": "active: 68.7%"}
{"smiles": "COCCCNC(=O)Cn1c(=O)n(-c2cccc(C)c2)c(=O)c2c3c(sc21)CN(C(C)=O)CC3", "inhibition": "-3.11%"}
{"smiles": "COc1ccc(-c2cc(C(F)(F)F)nc(S(=O)(=O)CCCC(=O)Nc3ccccc3C(F)(F)F)n2)cc1OC", "inhibition": "5.69%"}
{"smiles": "COc1ccccc1CNc1nc(-c2ccco2)nn1C(=O)c1ccccc1[N+](=O)[O-]", "inhibition": "2.32%"}
{"smiles": "CCCCn1c(CCNC(=O)c2ccc(F)cc2)nc2ccccc21", "inhibition": "-8.26%"}
{"smiles": "COc1ccc(S(=O)(=O)N2Cc3ccccc3CC2C(=O)Nc2cccc(C)c2)cc1OC", "note": "(configuration not stated)", "inhibition": "1.45%"}
{"smiles": "COc1cccc(CNC(=O)Cn2cc3c(n2)-c2c(oc(C(=O)N4CCOCC4)c2C)CC3)c1", "inhibition": "8.01%"}
{"smiles": "COc1ccc(C(=O)NNC2=Nc3cccc4cccc2c34)cc1", "inhibition": "active: 62.6%"}
{"smiles": "O=C(CSc1nc2c(c(=O)[nH]1)CCCC2)Nc1cccc(O)c1", "inhibition": "7.46%"}
{"smiles": "CCCn1cc(S(=O)(=O)c2cccc(Cl)c2)c(=O)c2cc(F)c(N3CCN(CC)CC3)cc21", "inhibition": "4.75%"}
